Data taken from PubChem BioAssay AID463173 (ICCB-Longwood Screening Facility, Harvard Medical School, 2010).
Among all 52,000 compounds or so, about 1,700 (3.3%) were called active. Cut-off read from the data, not from the text of the source: active = survival mostly below about 52% (no sharp cut-off); inactive = mostly above about 56%. The list shows a part of the results.

System: Wild type
Test: S. aureus survival, RN4220 and DeltatarO strains – OD600, teichoic acid synthesis inhibitors, primary screen (AID 463173)
Conditions: S. aureus RN4220 wild type/DeltatarO growth, OD600, 18 h, active compounds read low, screened at 18.75 µg/mL (by protocol)

For `COc1ccc(CCn2c(=O)c3cccnc3n(CC(=O)Nc3ccc(C)cc3C)c2=O)cc1OC`, which survival is on record?
Its survival is inactive: 80%.

How did the survival turn out when `Cn1cc(C(=O)Nc2ccc(C#N)cc2)c2ccccc2c1=O` was run?
The survival was inactive: 89%.

`N/C(=N\OCC(=O)Nc1ccccc1)c1nonc1N` was tested. Which survival did it give?
The survival was inactive: 106%.

With `Cc1nc(-c2ccc(S(=O)(=O)N(Cc3ccccc3)C(C)C)cc2)co1` as the compound, how does the survival read?
The survival was inactive: 84%.

For `CC(C)OCCCNC(=O)CCCn1c(SCC(N)=O)nc2c(sc3ccccc32)c1=O`, which survival is on record?
Its survival is inactive: 83%.

Which survival does the source give for `O=C(CSc1nc2c([nH]c3ccccc32)c(=O)n1-c1ccc(F)cc1)NCc1ccc(F)cc1` here?
Its survival is inactive: 73%.

With `CCOc1ccc(CCNC(=O)c2ccc3c(c2)nc2n3CCOC2)cc1OCC` as the compound, how does the survival read?
Its survival is inactive: 63%.

With `C=CCN=C1SC(C)C(=O)N1S(=O)(=O)c1ccccc1` (configuration not stated) as the compound, how does the survival read?
Its survival is inactive: 110%.

With `Cc1ccc(Cl)cc1NC(=O)C1CCN(C(=O)c2cnn(-c3ccccc3)c2-n2cccc2)CC1` as the compound, how does the survival read?
Its survival is inactive: 86%.

With `CCN(CC)c1cc(C)c2cc(NC(=O)/C=C/c3ccccc3OC(C)C)ccc2n1` as the compound, how does the survival read?
Its survival is inactive: 96%.

For `Cc1ccc(Oc2nc3ccccn3c(=O)c2/C=C(\C#N)c2nc3ccccc3s2)c(C)c1`, which survival is on record?
Its survival is inactive: 63%.

For `CCN(CC)c1ccc(NS(=O)(=O)c2ccc(-c3coc(C)n3)cc2)c(C)c1`, which survival is on record?
Its survival is inactive: 72%.

How did the survival turn out when `Cc1cc(C)c2c(=O)c3c(oc2c1)C(=O)N(Cc1ccco1)C3c1ccc(F)cc1` (configuration not stated) was run?
Its survival is inactive: 83%.

How did the survival turn out when `Cn1c(=O)[nH]c(=O)c2c1nc(NNC=O)n2Cc1ccc(Cl)cc1` was run?
Its survival is inactive: 100%.

With `CCOc1ccc(-c2cc(C(=O)NCCc3ccccc3)c3c(-c4ccc(C)cc4)[nH]nc3n2)cc1` as the compound, how does the survival read?
Its survival is inactive: 128%.

Which survival does the source give for `Cc1cc(-c2ccc(C)c(S(=O)(=O)N3c4ccccc4CC3C)c2)on1` (configuration not stated) here?
Its survival is inactive: 73%.

`O=C(NCc1ccc2c(c1)CCN2C(=O)c1ccc(Cl)cc1)c1ccco1` was tested. Which survival did it give?
Its survival is inactive: 89%.

For `CCOC(=O)c1c(NC(=O)/C=C/c2ccc(OCC)cc2)sc2c1CCCC2`, which survival is on record?
Its survival is inactive: 78%.

For `O=C(Cn1c(=O)n(-c2ccccc2)c(=O)c2c3c(sc21)CCCC3)Nc1ccccc1`, which survival is on record?
The survival was inactive: 129%.

How did the survival turn out when `Cc1ccc(C2C(C#N)=C(N)N(c3cccnc3)C3=C2C(=O)CCC3)s1` (configuration not stated) was run?
Its survival is inactive: 113%.

For `CC(=O)N1CCc2c(sc3c2c(=O)n(-c2cccc(Cl)c2)c(=O)n3Cc2ccc(F)cc2Cl)C1`, which survival is on record?
The survival was inactive: 77%.

`Cc1nn(C)c2c1c(C(F)(F)F)cc(=O)n2CC(=O)N1CCN(c2ccccc2F)CC1` was tested. Which survival did it give?
Its survival is inactive: 72%.

With `O=C(O)CSc1nnc(-c2ccc(O)cc2)o1` as the compound, how does the survival read?
Its survival is inactive: 71%.

For `CCOC(=O)c1noc2nc(C)n(CC(=O)Nc3ccc(OC)c(Cl)c3)c(=O)c12`, which survival is on record?
Its survival is inactive: 80%.

With `Cc1cc(N2CCC(C(=O)Nc3ccc(Cl)cc3)CC2)n2nc(C)c(-c3ccc(Cl)cc3)c2n1` as the compound, how does the survival read?
Its survival is inactive: 80%.

How did the survival turn out when `Cc1ccc(CC(=O)Nc2c(C(=O)N3CCN(c4ccccc4)CC3)oc3ccccc23)cc1` was run?
The survival was inactive: 76%.

For `CCOC(=O)CSc1nnc2n(-c3ccccc3)c(=O)c3c4c(sc3n12)COC(C(C)C)C4` (configuration not stated), which survival is on record?
The survival was inactive: 79%.

`CS(=O)(=O)c1ccc(-c2nnn(CC(=O)NC3CCCC3)n2)cc1` was tested. Which survival did it give?
Its survival is inactive: 104%.

`S=c1[nH]c2ccccc2n1C1CCCCC1` was tested. Which survival did it give?
The survival was inactive: 114%.

For `Oc1ccccc1C1NN=C(c2ccccc2)S1` (configuration not stated), which survival is on record?
The survival was inactive: 98%.

For `CCCCN(CC)CCNC(=O)C1CCN(c2nnc(C)c3c(C)n(-c4ccc(C)cc4)nc23)CC1`, which survival is on record?
The survival was inactive: 80%.

Which survival does the source give for `Cc1ccc(Cc2c(C)nc3c(-c4ccccc4)c(C)[nH]n3c2=O)cc1` here?
The survival was active: -11%.

For `Cc1cc2c(cc3c(=O)n(CC(=O)NCc4ccccc4Br)ncn32)s1`, which survival is on record?
Its survival is inactive: 80%.

With `CCc1c(C)nc2nncn2c1NCc1ccc(OC)cc1` as the compound, how does the survival read?
Its survival is inactive: 89%.

`Cc1[nH]c2ccc(CNS(=O)(=O)c3ccc(S(=O)(=O)N4CCOCC4)cc3)cc2c1C` was tested. Which survival did it give?
The survival was inactive: 120%.

Which survival does the source give for `Cc1ccc(-n2nc(C)c3c(C(=O)O)cc(C)nc32)cc1` here?
Its survival is inactive: 84%.

`CC(CNC(=O)c1ccc2c(c1)nc1n2CCOC1)c1ccccc1` (configuration not stated) was tested. Which survival did it give?
Its survival is inactive: 71%.

How did the survival turn out when `O=C(CCS(=O)(=O)c1cccc2nonc12)Nc1cccc(F)c1` was run?
Its survival is inactive: 68%.

How did the survival turn out when `CC(C)NC(=O)CSc1nc2ccccc2c(=O)n1Cc1ccc(C(=O)NC(C)C)cc1` was run?
Its survival is inactive: 79%.

How did the survival turn out when `Cc1cccc(C)c1OCCn1c(C2CC(=O)N(Cc3ccc(F)cc3)C2)nc2ccccc21` (configuration not stated) was run?
Its survival is active: -4%.

Which survival does the source give for `CNCC(O)COc1ccccc1` (configuration not stated) here?
Its survival is inactive: 113%.

With `CN(C)C(=O)COc1ccc(S(=O)(=O)c2ccc(OCC(=O)N(C)C)cc2)cc1` as the compound, how does the survival read?
The survival was inactive: 105%.

`O=C(CSc1nc(=O)[nH]c2c1CCC2)NCc1ccc(Cl)cc1` was tested. Which survival did it give?
Its survival is inactive: 60%.

With `O=S1(=O)C=C(Sc2nnnn2-c2ccccc2)c2ccccc21` as the compound, how does the survival read?
Its survival is active: -1%.

`Cc1noc2ncnc(N3CCN(c4ccccc4F)CC3)c12` was tested. Which survival did it give?
Its survival is inactive: 77%.

`CCSc1ncc(Cl)c(C(=O)Nc2ccc(S(=O)(=O)Nc3nccc(C)n3)cc2)n1` was tested. Which survival did it give?
Its survival is inactive: 89%.

With `Cc1ccc(Cl)cc1NC(=O)Cn1cc2c(n1)CCCCC2` as the compound, how does the survival read?
The survival was inactive: 82%.

`COc1ccc(CN(Cc2ccco2)c2cnc(S(C)(=O)=O)nc2C(=O)Nc2ccc(C)c(C)c2)cc1` was tested. Which survival did it give?
The survival was inactive: 83%.

Which survival does the source give for `COC(=O)c1ccc(C(=O)Nc2ccc(-c3nc4cc(NC(=O)c5ccc(C(=O)OC)cc5)ccc4o3)cc2)cc1` here?
The survival was inactive: 81%.

Which survival does the source give for `Cc1cccc(CSc2nc3cccnc3n2Cc2ccc(C(=O)NCc3ccco3)cc2)c1` here?
The survival was inactive: 89%.

`O=C(CCC1N=C2c3ccccc3N=C(SCc3ccccc3Cl)N2C1=O)N1CCN(c2ccccc2)CC1` (configuration not stated) was tested. Which survival did it give?
Its survival is inactive: 65%.

With `Cc1ccc2cc3c(N)[nH]nc3nc2c1` as the compound, how does the survival read?
The survival was inactive: 101%.

For `COC(=O)CC1Oc2ccc(C)cc2-n2cc(-c3ccc(F)cc3)nc21` (configuration not stated), which survival is on record?
Its survival is inactive: 66%.

`COC(=O)c1ccc(NC(=O)c2cccc3c2C(=O)N(C2CCCCC2)C3)cc1` was tested. Which survival did it give?
The survival was inactive: 88%.

`Cc1ccc(C)c(NC(=O)CSc2ncc3c(n2)-c2cc(Cl)ccc2N(Cc2ccccc2F)S3(=O)=O)c1` was tested. Which survival did it give?
Its survival is inactive: 71%.

For `Cc1ccc(C)c(N2CCN(C(=O)CCn3c(=O)[nH]c4ccccc4c3=O)CC2)c1`, which survival is on record?
Its survival is inactive: 113%.

Which survival does the source give for `CCCSCCCNC(=O)c1cc2n(n1)CCCN(Cc1ccc(C)cc1)C2=O` here?
Its survival is inactive: 113%.
